From patent publication US20240076343A1

Experiments:
Assay in all cases: cell-based or functional assay
[1] = biological target: high-affinity hIL-2 receptor (IL-2Rαβγ) on NK-92 cells (human) (UniProt P01589)
[2] = biological target: intermediate affinity hIL-2 receptor (hIL-2Rβγ) on TF1+IL-2Rβ cells (human) (UniProt P14784)
[3] = biological target: intermediate affinity hIL-2 receptor complex (IL-2Rβγ) (human) (UniProt P14784)
[4] = biological target: high-affinity hIL-2 receptor (IL-2Rαβγ) (human) (UniProt P01589)

Row | Agonistic Activity (NK-92) [1] [%] | Fold change from rhIL-2 (NK-92) [1] [fold] | Agonistic Activity (TF1 + IL-2Rβ) [2] [%] | Fold change from rhIL-2 (TF1 + IL-2Rβ) [2] [fold] | Fold change from hIL-2 (TF1 + IL-2Rβ), pSTAT5 fixed conc. [3] [fold] | Fold change from hIL-2 (NK-92), pSTAT5 fixed conc. [4] [fold] | Fold change from rhIL-2 (TF1 + IL-2Rβ), pSTAT5 titration [3] [fold] | Fold change from rhIL-2 (NK-92), pSTAT5 titration [4] [fold] | Binder
1 | 80 | 613 | 60 | 392 | 2 | 18 | – | – | 1H3-hIgG1-L6-hIL-2 (D20A/Y45G) (protein) heavy: EVQLVESGGGLVQPGRSLKLSCAVSGFTFSDYAMAWVRQAPKKGLEWVATISYDGSRTYYRDSVKGRFTISRDNAKITLYLQMDSLRSEDTATYYCARHGSGYFDYWGQGVMVTVSS[not shown - about 450 residues with a human IgG1 Fc and changes] light: DTVLTQSPALAVSPGERVTISCRASESVRTGVHWYQQKPGQQPKLLIYGASNLESGVPARFSGSGSGTDFTLTIDPVEADDTATYFCQQSWNDPFTFGSGTKLEIKRTVAAPSVFIFPPSDEQLKSGTASVVCLLNNFYPREAKVQWKVDNALQSGNSQESVTEQDSKDSTYSLSSTLTLSKADYEKHKVYACEVTHQGLSSPVTKSFNRGEC
2 | 70 | 420 | 60 | 427 | 2 | 16 | – | – | 1H3-hIgG1-L6-hIL-2 (D20A/Y45H) (protein) heavy: EVQLVESGGGLVQPGRSLKLSCAVSGFTFSDYAMAWVRQAPKKGLEWVATISYDGSRTYYRDSVKGRFTISRDNAKITLYLQMDSLRSEDTATYYCARHGSGYFDYWGQGVMVTVSS[not shown - about 450 residues with a human IgG1 Fc and changes] light: DTVLTQSPALAVSPGERVTISCRASESVRTGVHWYQQKPGQQPKLLIYGASNLESGVPARFSGSGSGTDFTLTIDPVEADDTATYFCQQSWNDPFTFGSGTKLEIKRTVAAPSVFIFPPSDEQLKSGTASVVCLLNNFYPREAKVQWKVDNALQSGNSQESVTEQDSKDSTYSLSSTLTLSKADYEKHKVYACEVTHQGLSSPVTKSFNRGEC
3 | – | 577 | – | 710 | 4 | 25 | – | – | 1H3-hIgG1-L6-hIL-2 (D20A/Y45P) (protein) heavy: EVQLVESGGGLVQPGRSLKLSCAVSGFTFSDYAMAWVRQAPKKGLEWVATISYDGSRTYYRDSVKGRFTISRDNAKITLYLQMDSLRSEDTATYYCARHGSGYFDYWGQGVMVTVSS[not shown - about 450 residues with a human IgG1 Fc and changes] light: DTVLTQSPALAVSPGERVTISCRASESVRTGVHWYQQKPGQQPKLLIYGASNLESGVPARFSGSGSGTDFTLTIDPVEADDTATYFCQQSWNDPFTFGSGTKLEIKRTVAAPSVFIFPPSDEQLKSGTASVVCLLNNFYPREAKVQWKVDNALQSGNSQESVTEQDSKDSTYSLSSTLTLSKADYEKHKVYACEVTHQGLSSPVTKSFNRGEC
4 | 30 | 7230 | – | 872 | 4 | 29 | 24 | > 10000 | 1H3-hIgG1-L6-hIL-2 (I92D/F42Q) (protein) heavy: EVQLVESGGGLVQPGRSLKLSCAVSGFTFSDYAMAWVRQAPKKGLEWVATISYDGSRTYYRDSVKGRFTISRDNAKITLYLQMDSLRSEDTATYYCARHGSGYFDYWGQGVMVTVSS[not shown - about 450 residues with a human IgG1 Fc and changes] light: DTVLTQSPALAVSPGERVTISCRASESVRTGVHWYQQKPGQQPKLLIYGASNLESGVPARFSGSGSGTDFTLTIDPVEADDTATYFCQQSWNDPFTFGSGTKLEIKRTVAAPSVFIFPPSDEQLKSGTASVVCLLNNFYPREAKVQWKVDNALQSGNSQESVTEQDSKDSTYSLSSTLTLSKADYEKHKVYACEVTHQGLSSPVTKSFNRGEC
5 | – | 11 | 70 | 426 | 2 | 13 | – | – | 1H3-hIgG1-L6-hIL-2 (D20A/Y45L) (protein) heavy: EVQLVESGGGLVQPGRSLKLSCAVSGFTFSDYAMAWVRQAPKKGLEWVATISYDGSRTYYRDSVKGRFTISRDNAKITLYLQMDSLRSEDTATYYCARHGSGYFDYWGQGVMVTVSS[not shown - about 450 residues with a human IgG1 Fc and changes] light: DTVLTQSPALAVSPGERVTISCRASESVRTGVHWYQQKPGQQPKLLIYGASNLESGVPARFSGSGSGTDFTLTIDPVEADDTATYFCQQSWNDPFTFGSGTKLEIKRTVAAPSVFIFPPSDEQLKSGTASVVCLLNNFYPREAKVQWKVDNALQSGNSQESVTEQDSKDSTYSLSSTLTLSKADYEKHKVYACEVTHQGLSSPVTKSFNRGEC
6 | 20 | > 10000 | – | 848 | 4 | 26 | 58 | > 10000 | 1H3-hIgG1-L6-hIL-2 (I92D/F42K) (protein) heavy: EVQLVESGGGLVQPGRSLKLSCAVSGFTFSDYAMAWVRQAPKKGLEWVATISYDGSRTYYRDSVKGRFTISRDNAKITLYLQMDSLRSEDTATYYCARHGSGYFDYWGQGVMVTVSS[not shown - about 450 residues with a human IgG1 Fc and changes] light: DTVLTQSPALAVSPGERVTISCRASESVRTGVHWYQQKPGQQPKLLIYGASNLESGVPARFSGSGSGTDFTLTIDPVEADDTATYFCQQSWNDPFTFGSGTKLEIKRTVAAPSVFIFPPSDEQLKSGTASVVCLLNNFYPREAKVQWKVDNALQSGNSQESVTEQDSKDSTYSLSSTLTLSKADYEKHKVYACEVTHQGLSSPVTKSFNRGEC
7 | – | 107 | 60 | 449 | 3 | 16 | – | – | 1H3-hIgG1-L6-hIL-2 (D20A/Y45M) (protein) heavy: EVQLVESGGGLVQPGRSLKLSCAVSGFTFSDYAMAWVRQAPKKGLEWVATISYDGSRTYYRDSVKGRFTISRDNAKITLYLQMDSLRSEDTATYYCARHGSGYFDYWGQGVMVTVSS[not shown - about 450 residues with a human IgG1 Fc and changes] light: DTVLTQSPALAVSPGERVTISCRASESVRTGVHWYQQKPGQQPKLLIYGASNLESGVPARFSGSGSGTDFTLTIDPVEADDTATYFCQQSWNDPFTFGSGTKLEIKRTVAAPSVFIFPPSDEQLKSGTASVVCLLNNFYPREAKVQWKVDNALQSGNSQESVTEQDSKDSTYSLSSTLTLSKADYEKHKVYACEVTHQGLSSPVTKSFNRGEC
8 | 90 | 25 | 50 | 272 | 2 | 13 | – | – | 1H3-hIgG1-L6-hIL-2 (D20A/Y45F) (protein) heavy: EVQLVESGGGLVQPGRSLKLSCAVSGFTFSDYAMAWVRQAPKKGLEWVATISYDGSRTYYRDSVKGRFTISRDNAKITLYLQMDSLRSEDTATYYCARHGSGYFDYWGQGVMVTVSS[not shown - about 450 residues with a human IgG1 Fc and changes] light: DTVLTQSPALAVSPGERVTISCRASESVRTGVHWYQQKPGQQPKLLIYGASNLESGVPARFSGSGSGTDFTLTIDPVEADDTATYFCQQSWNDPFTFGSGTKLEIKRTVAAPSVFIFPPSDEQLKSGTASVVCLLNNFYPREAKVQWKVDNALQSGNSQESVTEQDSKDSTYSLSSTLTLSKADYEKHKVYACEVTHQGLSSPVTKSFNRGEC
9 | 70 | 39 | 30 | 137 | 2 | 13 | – | – | 1H3-hIgG1-L6-hIL-2 (D20A/Y45I) (protein) heavy: EVQLVESGGGLVQPGRSLKLSCAVSGFTFSDYAMAWVRQAPKKGLEWVATISYDGSRTYYRDSVKGRFTISRDNAKITLYLQMDSLRSEDTATYYCARHGSGYFDYWGQGVMVTVSS[not shown - about 450 residues with a human IgG1 Fc and changes] light: DTVLTQSPALAVSPGERVTISCRASESVRTGVHWYQQKPGQQPKLLIYGASNLESGVPARFSGSGSGTDFTLTIDPVEADDTATYFCQQSWNDPFTFGSGTKLEIKRTVAAPSVFIFPPSDEQLKSGTASVVCLLNNFYPREAKVQWKVDNALQSGNSQESVTEQDSKDSTYSLSSTLTLSKADYEKHKVYACEVTHQGLSSPVTKSFNRGEC
10 | 10 | 4590 | – | 3640 | 4 | 31 | 117 | > 10000 | 1H3-hIgG1-L6-hIL-2 (I92D/F42I) (protein) heavy: EVQLVESGGGLVQPGRSLKLSCAVSGFTFSDYAMAWVRQAPKKGLEWVATISYDGSRTYYRDSVKGRFTISRDNAKITLYLQMDSLRSEDTATYYCARHGSGYFDYWGQGVMVTVSS[not shown - about 450 residues with a human IgG1 Fc and changes] light: DTVLTQSPALAVSPGERVTISCRASESVRTGVHWYQQKPGQQPKLLIYGASNLESGVPARFSGSGSGTDFTLTIDPVEADDTATYFCQQSWNDPFTFGSGTKLEIKRTVAAPSVFIFPPSDEQLKSGTASVVCLLNNFYPREAKVQWKVDNALQSGNSQESVTEQDSKDSTYSLSSTLTLSKADYEKHKVYACEVTHQGLSSPVTKSFNRGEC
